The source gives no read counts; variants with many changes may rest on few reads.

For 167 variants, self-cleavage results are on record in the RNAGym collection of RNA variant scans (doi:10.7554/elife.90254).

The labels stand for the following.
B1: LINE1-full (parent)
chain: UACGUAGGUGGUUUUCCCCUGAUAGUGCUAAGGGGGCCUGGAAGUUUGGACUGGGCAGAGCUCAACACAGCGUGGCAAAGUGGCUGUGGCUAGACUGCCUCUCUGGAUUCCUCGUCACUCAGCAGGGCAUCUCUGAGAGAAAUGCC

The data set covers variants of B1. The data set is described as follows: self-cleavage, relative activity (ratio to wild type); higher = more cleavage; in vitro, sequencing; the parent is a self-cleaving ribozyme.
For U46C A117C U130A, the self-cleavage was 2.29.

On to U45G A59G A69U, for which the self-cleavage was determined as 0.09.

Consider U46C U52C G135U, for which the self-cleavage stood at 0.84.

For the variant U46A A64G A129G, the self-cleavage came to 0.37.

As to U46A A136G A141G U143C, the self-cleavage is 1.94.

For the variant U45C U52G U132A, the self-cleavage stood at 1.49.

U45C U52G U132C: the self-cleavage is 2.01.

With U46C U73A A77G A124U, the self-cleavage was 0.9.

Turning to U46C A64U C71U A129U, the self-cleavage turned out to be 0.28.

With U46C U62A U132A, the self-cleavage was 0.01.

For the variant U45G A94G C131U A140U, the self-cleavage is 0.

On to U46A A64U A141G A142G, for which the self-cleavage is 0.28.

Consider U46A U108C A141G, for which the self-cleavage was determined as 1.54.

Regarding U46C U52A C113A, the self-cleavage is 1.5.

Turning to U46C U112C A136G A140G, the self-cleavage worked out at 1.22.

Consider U46C A57U U112C, for which the self-cleavage was 0.23.

With U46C U52A A94U, the self-cleavage was 0.47.

Turning to U46A A50G U87A A117G, the self-cleavage amounted to 0.06.

Turning to U46C A64G U73A C145U, the self-cleavage amounted to 0.46.

As for U46A C61A A79G U85C U143C, the self-cleavage was 0.09.

As for U46C G48U U96C U132C, the self-cleavage was 0.23.

As for U46C U62C U85C A121U, the self-cleavage is 0.33.

Consider U46A A94G A124G, for which the self-cleavage was 0.34.

With U46C C113A A136U G144A, the self-cleavage was 1.51.

With U46C A77C A141G, the self-cleavage was found to be 1.1.

With U46C U73C A142G, the self-cleavage came to 1.47.

U46G U87C A94U: the self-cleavage is 0.11.

For U46A A77G A94G G114A, the self-cleavage came out at 0.32.

In the case of U47A A50G A78G G127A, the self-cleavage amounted to 0.42.

Regarding U46A A57U A78U U115A A142G, the self-cleavage was determined as 0.15.

On to U46A A77G A138G U143C, for which the self-cleavage came out at 1.84.

Turning to U46A A57U U85C A94G A121U, the self-cleavage was 0.08.

As for U46C A57G A141G, the self-cleavage is 1.5.

U46C A50G A57G U81A: the self-cleavage is 0.22.

Consider U45C U96A A136G, for which the self-cleavage was 0.06.

Take U46G C101U A140G: the self-cleavage worked out at 1.6.

As for U46C U52A U85A U102C A142G, the self-cleavage worked out at 0.

For the variant U46C A57G A69G U87A C110U A142U, the self-cleavage was 0.

U46C A67U U115C A121G: the self-cleavage stood at 0.55.

Regarding U46G U100C A129G A142G, the self-cleavage worked out at 1.97.

For the variant U46A A50U U104C A141G, the self-cleavage came to 0.65.

Take U45G C56A U81C U87A: the self-cleavage worked out at 0.15.

Regarding U46C U130C A141G, the self-cleavage was 2.3.

In the case of U45G G114U A142G, the self-cleavage turned out to be 0.84.

For U46C A77G G127A A140G, the self-cleavage amounted to 1.95.

Take U46C A77G G127A: the self-cleavage was found to be 1.54.

In the case of U46C A65G A121G, the self-cleavage was found to be 0.

Turning to U46C U52A U143A, the self-cleavage stood at 1.

For the variant U46G U100C A140U, the self-cleavage was 1.61.

Consider U46C U115C C145U, for which the self-cleavage was found to be 1.84.

Take U46C G88A A142G: the self-cleavage came out at 0.05.

Turning to U46C A65G A77G, the self-cleavage turned out to be 0.09.

Take U45G A79G U112C: the self-cleavage amounted to 1.41.

U45C U52C A77U: the self-cleavage worked out at 1.57.

Take U46C U62C U81A: the self-cleavage turned out to be 0.07.

For U46C A67G U81A, the self-cleavage was determined as 0.74.

U46C G49A U52A: the self-cleavage was 0.92.

On to U46C C120U G127A, for which the self-cleavage is 1.42.

Take U45C U100A C111U U132A: the self-cleavage came out at 0.77.

As for U46C C98U G106A A138U, the self-cleavage turned out to be 0.35.

Consider U46C U62C A107G A124U, for which the self-cleavage was found to be 0.26.

On to U46C A57U A59G A77G, for which the self-cleavage is 0.

Take U46C A57G A64G C145U: the self-cleavage was 0.

For the variant U45C U91G U130C, the self-cleavage came out at 0.

On to U45C U62C U91C, for which the self-cleavage was determined as 0.

As to U46C A57U A69U A79U C123A C133U, the self-cleavage was determined as 0.02.

Take U46G A59G A129U: the self-cleavage came to 0.

Take U46G A65G U134C U143C: the self-cleavage came to 0.

Consider U46C G60A A64G, for which the self-cleavage came out at 0.55.

With U46A U47C A59G, the self-cleavage amounted to 0.16.

On to U46C A117U A138G, for which the self-cleavage came to 1.76.

As for U46A A94G A141G, the self-cleavage is 0.2.

For the variant U45C U73C G88A, the self-cleavage was 0.52.

On to U46C A129G U134A C146U, for which the self-cleavage came to 1.64.

Regarding U46C A59G A64U A67G A94G C111U, the self-cleavage came out at 0.

U46C A59G A136U A138G: the self-cleavage worked out at 0.

Turning to U46C A69U A107G A121G U132A, the self-cleavage came out at 0.

Consider U46C A57G G80U, for which the self-cleavage worked out at 1.25.

On to U46C A79G U115C, for which the self-cleavage is 0.77.

In the case of U46C U85A U104A, the self-cleavage is 0.02.

As to U46C U62C G72A G125U A136U, the self-cleavage was found to be 0.02.

Take U46C U100A A140U: the self-cleavage was 1.61.

Take U46A A64G A138G: the self-cleavage amounted to 0.41.

With U46A A77U A138G, the self-cleavage turned out to be 2.02.

With U45C U104A U130C, the self-cleavage was 1.72.

As for U45C U52A U73A U104A, the self-cleavage was found to be 2.58.

Consider U46C C90A U96C, for which the self-cleavage was 0.01.

As to U46C A79G C103A, the self-cleavage is 1.53.

Regarding U46C A67G C71U U85C, the self-cleavage was 0.

In the case of U46C C61U U73C, the self-cleavage turned out to be 0.

With U46A A67G U87A A136U, the self-cleavage was determined as 0.09.

Regarding U46A G114A C116A A140U, the self-cleavage was 1.08.

As for U46C U47C A121U U130C, the self-cleavage is 0.51.

With U46C A57G A78U, the self-cleavage came out at 1.84.

Take U46C U96C U130C: the self-cleavage turned out to be 1.15.

Turning to U46C A79G G89A U96A, the self-cleavage amounted to 0.05.

Take U47A A57G A59G A94U U109C C120A A121G: the self-cleavage was found to be 0.

Turning to U46C G53A U62A G70C, the self-cleavage turned out to be 0.03.

Turning to U46C G49U U134C, the self-cleavage amounted to 1.29.

On to U45C U102A A124U, for which the self-cleavage was 0.91.

Regarding U46C U52A C120U, the self-cleavage was determined as 1.88.

Regarding U46A G75A U104C, the self-cleavage was 0.89.

Regarding U46C A78G A141G, the self-cleavage stood at 1.39.

As for U46A A57U A65G, the self-cleavage is 0.03.

With U46A U52C U87A U109A, the self-cleavage is 0.04.

U46C U52C U73A U102C: the self-cleavage was found to be 1.39.

Turning to U45C U62A A77U U132G A138G, the self-cleavage is 0.

In the case of U45C U112C U115C, the self-cleavage was found to be 1.15.

Regarding U46G A50G A77G A140G G144A, the self-cleavage was found to be 1.84.

U45G U87A A124C: the self-cleavage was determined as 0.08.

Take U45G U62C G125A U132C: the self-cleavage is 0.05.

On to U46C U73A G86A U115C G125A, for which the self-cleavage turned out to be 0.11.

U46A U112C A138G A141G: the self-cleavage was 1.17.

Turning to U46A A64U U112C, the self-cleavage is 0.25.

As for U46C A107U A121G, the self-cleavage was found to be 2.69.

Regarding U46C A57G A142G, the self-cleavage was found to be 0.

With U46A A136G A142G, the self-cleavage turned out to be 0.66.

Turning to U46A A64G G125A, the self-cleavage came to 0.1.

With U45C U100C U115A, the self-cleavage came out at 1.04.

For the variant U46A G60A U100C, the self-cleavage was found to be 0.03.

In the case of U46C A65G U104C C123U A142G, the self-cleavage came to 0.15.

Take U46G U96C A141G: the self-cleavage was determined as 0.05.

For U46C U52A U62C, the self-cleavage is 0.15.

For the variant U46C A59G G126U, the self-cleavage came out at 0.09.

In the case of U45C U100C A129G, the self-cleavage turned out to be 0.51.

U46C U47C A77G: the self-cleavage is 2.96.

For the variant U46C G70U U96A U108C G114A, the self-cleavage is 0.01.

Turning to U46A U62C C95U C111A, the self-cleavage was 0.02.

For U46C C51U C76U A140U, the self-cleavage came out at 2.08.

Consider U46A A59G U96A, for which the self-cleavage was found to be 0.05.

In the case of U46C U100C A117U, the self-cleavage was 1.66.

U46C A117G A140G: the self-cleavage is 1.84.

Take U46A A78G A117G A138G: the self-cleavage was 0.99.

For the variant U46A A64C A117U U119C U143A, the self-cleavage was 0.46.

Regarding U46A U109C U112A, the self-cleavage is 1.24.

In the case of U46A U47G C128U, the self-cleavage stood at 1.12.

Turning to U45C U81C U87A, the self-cleavage was found to be 0.12.

On to U45C U85A U130C, for which the self-cleavage came out at 0.09.

As for U46C A129U A138G A142G, the self-cleavage was found to be 1.92.

On to U45C U52C G89A C133U, for which the self-cleavage was found to be 0.

As to U46C G70A U102C, the self-cleavage amounted to 0.43.

For U45G G55C U102C, the self-cleavage came out at 0.

U45C U132A A138G A142G: the self-cleavage was found to be 2.25.

For U46C A65G A142G, the self-cleavage is 0.05.

Regarding U46C U73A G105U, the self-cleavage came out at 0.49.

With U46C G60A U132C A142G, the self-cleavage is 0.01.

Consider U46C G53A A57G U143C, for which the self-cleavage was 1.57.

With U45G A124U A140G, the self-cleavage is 1.03.

As to U45C U108C U143A, the self-cleavage was determined as 2.11.

With U46G A67G A78G A140G, the self-cleavage worked out at 0.71.

Consider U46C G139U A141C, for which the self-cleavage was found to be 0.85.

For the variant U45G G74A C84G U100C, the self-cleavage stood at 0.07.

For U46A A59G A121G, the self-cleavage is 0.14.

In the case of U45G G80A U91A, the self-cleavage came out at 0.71.

As for U46A A94G U100C, the self-cleavage is 0.29.

Regarding U46C U52A A69U G139U, the self-cleavage amounted to 0.04.

For U46C U85A U130C A136G A142G, the self-cleavage was found to be 0.37.

For U46C U52A U109C A121U A129C, the self-cleavage is 2.07.

Turning to U45C U87C A94U U112C, the self-cleavage worked out at 0.13.

In the case of U46A G60A U112A, the self-cleavage was determined as 0.03.

As to U46C A59G A136G, the self-cleavage stood at 0.

Regarding U45C U73C G139A, the self-cleavage was 0.

Consider U45G A67U U112A A124G, for which the self-cleavage is 0.

U46C A64G A121G U134C: the self-cleavage worked out at 0.43.

Take U46A U62C A121G A140G: the self-cleavage came out at 0.

For U46C U108C A138G A141U U143C, the self-cleavage is 2.22.

With U46A U81A U108C, the self-cleavage was 2.37.
